Results as given in publication PMC12181400, “Leveraging viral genome sequences and machine learning models for identification of potentially selective antiviral agents” (Communications Chemistry, 2025).
Like-named read-outs stand apart in the source and are kept apart here.

Biological target: SARS-CoV-2 RNA-dependent RNA polymerase (RdRp) (Severe acute respiratory syndrome coronavirus 2, UniProt P0DTD1)
Experiment: biochemical
[1] = RdRp TR-FRET, mean ± SD of two independent experiments

SMILES	IC50	efficacy [1]	IC50 (RdRp TR-FRET, 37 °C 3 h, 11 concentrations, mean ± SD of two independent experiments, read-out: IC50)
CN(C)CCCn1c2c3ccccc3ccc2c2oc(=O)c3ccccc3c21 [NCGC00014952]	3.83 ± 4.83 µM	−121.90 ± 50.78%	
CCCc1ccc(-c2csc(NC(=O)c3ccncc3N[S+](=O)([O-])c3ccc(C)cc3)n2)cc1 [NCGC00318955]	13 ± 2.1 µM	−145.28 ± 8.39%	
COc1cccc(NC(=O)Cc2c(C)nn(-c3nc(-c4ccc(Cl)cc4)cs3)c2O)c1 [NCGC00347258]	7.43 ± 2.38 µM	−56.66 ± 16.43%	
Cc1cc(OCCCc2c(C(F)(F)F)n(CC(=O)NCc3ccc(C(=O)O)cc3)c3c(-c4c(C)nn(C)c4C)c(Cl)ccc23)cc(C)c1Cl [NCGC00378383]	5.51 ± 1.33 µM	−66.44 ± 6.99%	
COc1cccc(NC(=O)c2cc(-c3ccccc3C(F)(F)F)nc3c2cnn3C)c1 [NCGC00506397]	6.84 ± 3.21 µM	−61.84 ± 11.65%	
COc1cc2c3c(c1O)C1(C=CC(=O)C=C1)CC3N(C)CC2 (centres unmarked) [glaziovine]			10.5 ± 3.36 µM
